Here are results for 22 compounds from article PMC4336329 (PLoS ONE, 2015).

The whole screen tested about 310,000 compounds, of which about 14,000 (4.5%) showed an effect of 50% or more. The effect is printed as a negative number. The list shows a part of the results.
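Note: peak tail current of the secondary pulse compared with the same well before compound.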

Chain of human ether-à-go-go-related gene (hERG) potassium channel (Q12809 whole entry, looked up): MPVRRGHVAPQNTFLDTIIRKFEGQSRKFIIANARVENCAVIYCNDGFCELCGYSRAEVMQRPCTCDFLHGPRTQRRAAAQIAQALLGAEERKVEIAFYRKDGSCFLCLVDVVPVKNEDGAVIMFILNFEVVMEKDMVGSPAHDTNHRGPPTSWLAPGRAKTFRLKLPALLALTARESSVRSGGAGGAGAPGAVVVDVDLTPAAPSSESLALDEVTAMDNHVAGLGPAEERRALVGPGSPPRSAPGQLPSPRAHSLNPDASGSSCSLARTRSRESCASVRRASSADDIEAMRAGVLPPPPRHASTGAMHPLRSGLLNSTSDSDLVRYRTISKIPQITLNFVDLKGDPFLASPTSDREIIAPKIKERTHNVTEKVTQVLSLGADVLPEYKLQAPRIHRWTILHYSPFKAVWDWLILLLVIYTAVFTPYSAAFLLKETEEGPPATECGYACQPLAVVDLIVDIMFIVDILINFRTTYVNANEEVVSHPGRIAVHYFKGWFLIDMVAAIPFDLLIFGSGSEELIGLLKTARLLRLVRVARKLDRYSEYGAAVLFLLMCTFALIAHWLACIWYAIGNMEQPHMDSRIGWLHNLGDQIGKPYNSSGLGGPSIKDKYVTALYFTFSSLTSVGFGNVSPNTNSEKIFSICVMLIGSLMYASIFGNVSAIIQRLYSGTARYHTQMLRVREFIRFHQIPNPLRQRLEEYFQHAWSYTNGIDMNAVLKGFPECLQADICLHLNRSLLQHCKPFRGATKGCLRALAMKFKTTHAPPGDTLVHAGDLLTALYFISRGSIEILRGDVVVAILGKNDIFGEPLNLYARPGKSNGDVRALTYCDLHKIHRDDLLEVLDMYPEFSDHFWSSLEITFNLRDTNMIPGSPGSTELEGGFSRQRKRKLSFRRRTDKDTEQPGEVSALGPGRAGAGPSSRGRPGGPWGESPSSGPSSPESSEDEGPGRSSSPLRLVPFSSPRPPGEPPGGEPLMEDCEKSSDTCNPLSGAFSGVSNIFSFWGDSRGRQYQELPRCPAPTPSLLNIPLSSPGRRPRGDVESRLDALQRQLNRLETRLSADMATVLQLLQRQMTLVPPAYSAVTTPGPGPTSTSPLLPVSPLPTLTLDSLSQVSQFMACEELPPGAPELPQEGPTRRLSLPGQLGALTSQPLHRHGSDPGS

The test has as its target human ether-à-go-go-related gene (hERG) potassium channel (human, UniProt Q12809). The test can be described thus: primary screen, population patch clamp on CHO cells stably expressing hERG.
Regarding `CCOC(=O)C1=C(O)/C(=C/c2cc(OC)c(OC)c(OC)c2)N=C1C`, the “hERG current change (%, negative = inhibition) at 10uM” value is listed as 6.39%.
As for `O=C(Cn1nc(-c2ccccc2F)ccc1=O)NCc1ccc2c(c1)OCO2`, the figure is -36.9%; as for `O=C(/C=C/c1ccc(Cl)cc1)NC(=S)Nc1ccc(NC(=O)c2ccco2)cc1`, 2.52%; as for `O=C(N/N=C/c1c[nH]c2c1ccc1ccccc12)c1ccc([N+](=O)[O-])cc1`, 10.8%.
Under `Cc1ccc(S(=O)(=O)N2CC(C)N(C(=O)N3CCOCC3)C2C)cc1` (stereo not shown) stands 27.6%; under `O=C(O)c1ccc(CNCc2cccc(Oc3ccccc3)c2)cc1`, 4.98%.
In the case of `COc1ccc(Cc2nnc(N/N=C/c3ccc(N(C)C)cc3)[nH]c2=O)cc1OC`, the “hERG current change (%, negative = inhibition) at 10uM” value is 29.1%.
Regarding `COc1ccc2[nH]c(-c3ccc(C)cc3)cc(=O)c2c1`, the “hERG current change (%, negative = inhibition) at 10uM” value stood at 16.6%.
As for `COc1ccccc1CC(=O)N1CCN(c2ccccc2)CC1`, the figure is 9.19%.
Under `Cc1ccc(-n2c(=O)[nH]c3ncccc3c2=O)cc1` stands 30.2%; under `CC(C)(C)N1C(=O)[C@H]2[C@@H](c3ccc(Br)cc3)N3C(=O)N(c4ccccc4)C(=O)[C@@]3(Cc3ccccc3)[C@H]2C1=O`, -0.289%.
Under `C=CCn1cc(C(=O)NCc2ccc(Cl)cc2)c(=O)c2cc(S(=O)(=O)N(CC)CC)ccc21` stands -22.5%; under `Cc1c(C(=O)N2CCCC2)sc(NC(=O)c2ccco2)c1C#N`, 10.4%.
Turning to `Cc1ccc(C(=O)N/C(=C/c2ccc(C(C)C)cc2)C(=O)NCCCN2CCOCC2)cc1`, the “hERG current change (%, negative = inhibition) at 10uM” value is on record as -65.8%.
As for `Cc1ccc(N(CC(O)Cn2nc(C)cc2C)S(=O)(=O)c2ccc3ccccc3c2)cc1` (stereo not shown), the figure is -3.22%; as for `O=C(Cn1nc(C(=O)O)c2ccccc2c1=O)Nc1ccc(F)cc1`, 8.44%; as for `CCOC(=O)c1c(C)c(C(=O)NCc2cccnc2)c(C)n1C`, -1.16%.
`Cc1cc(N2CCN(CC(O)C(F)(F)F)CC2)c2ccccc2n1` (stereo not shown): the “hERG current change (%, negative = inhibition) at 10uM” value is listed as -40.7%.
Under `c1cc2c(cc1-c1[nH]ncc1CN1CC3C[C@@H]4CC1C[C@H](C3)C4)OCO2` stands -44.3%.
As to `CCN1CCN(C(=O)/C=C/c2ccc(C(C)C)cc2)CC1`, the “hERG current change (%, negative = inhibition) at 10uM” value is on record as -35.2%.
With `CCN(CC)c1ccc(NC(=O)C2CC(=O)N(Cc3ccccc3)C2)cc1` (stereo not shown), the “hERG current change (%, negative = inhibition) at 10uM” value is given as -6.71%.
As for `CC1(NC(=O)c2cccc(S(=O)(=O)N3CCN(c4ccccc4)CC3)c2)CCS(=O)(=O)C1` (stereo not shown), the figure is -23.1%.
